The campaign covered roughly 220,000 compounds. About 5,700 (2.6%) were called active. The shares of active, inactive and inconclusive entries below differ from those in the screen. The call rests on the fitted dose curve; in most records, active means well fitted inhibition curve with a large enough effect; inconclusive means small, poorly fitted or top-dose-only effect; inactive means no such curve, though single readings can be large or run the other way. Potencies of inconclusive entries are doubtful fits and often do not repeat.
Biological target: Lysine-specific demethylase 5B (Homo sapiens) (UniProt Q9UGL1)
Assay: Primary screen for KDM5B Histone Demethylases FDH-coupled qHTS; further: nearly all actives have a fitted effect of over 70% in size
Conditions: FDH-coupled NADH fluorescence (FDH is formaldehyde dehydrogenase); series mostly up to 57.7 µM
Summary of the method: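 Coupled FDH/NAD⁺ fluorescence readout. KDM5BΔAP 200 nM final; compound titration, 10 min RT preincubation; substrate mix 12.5 µM H3K4me3, 25 µM 2-OG, 50 µM Fe(II), 100 µM ascorbate, 0.25 mM NAD⁺, 0.25 U/mL FDH; ΔRFU over 30 min.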
Potency means the concentration at half of the fitted maximal effect; tags describe the fitted curve by direction and shape.

Chain of UniProt Q9UGL1 (Q9UGL1 whole entry, looked up): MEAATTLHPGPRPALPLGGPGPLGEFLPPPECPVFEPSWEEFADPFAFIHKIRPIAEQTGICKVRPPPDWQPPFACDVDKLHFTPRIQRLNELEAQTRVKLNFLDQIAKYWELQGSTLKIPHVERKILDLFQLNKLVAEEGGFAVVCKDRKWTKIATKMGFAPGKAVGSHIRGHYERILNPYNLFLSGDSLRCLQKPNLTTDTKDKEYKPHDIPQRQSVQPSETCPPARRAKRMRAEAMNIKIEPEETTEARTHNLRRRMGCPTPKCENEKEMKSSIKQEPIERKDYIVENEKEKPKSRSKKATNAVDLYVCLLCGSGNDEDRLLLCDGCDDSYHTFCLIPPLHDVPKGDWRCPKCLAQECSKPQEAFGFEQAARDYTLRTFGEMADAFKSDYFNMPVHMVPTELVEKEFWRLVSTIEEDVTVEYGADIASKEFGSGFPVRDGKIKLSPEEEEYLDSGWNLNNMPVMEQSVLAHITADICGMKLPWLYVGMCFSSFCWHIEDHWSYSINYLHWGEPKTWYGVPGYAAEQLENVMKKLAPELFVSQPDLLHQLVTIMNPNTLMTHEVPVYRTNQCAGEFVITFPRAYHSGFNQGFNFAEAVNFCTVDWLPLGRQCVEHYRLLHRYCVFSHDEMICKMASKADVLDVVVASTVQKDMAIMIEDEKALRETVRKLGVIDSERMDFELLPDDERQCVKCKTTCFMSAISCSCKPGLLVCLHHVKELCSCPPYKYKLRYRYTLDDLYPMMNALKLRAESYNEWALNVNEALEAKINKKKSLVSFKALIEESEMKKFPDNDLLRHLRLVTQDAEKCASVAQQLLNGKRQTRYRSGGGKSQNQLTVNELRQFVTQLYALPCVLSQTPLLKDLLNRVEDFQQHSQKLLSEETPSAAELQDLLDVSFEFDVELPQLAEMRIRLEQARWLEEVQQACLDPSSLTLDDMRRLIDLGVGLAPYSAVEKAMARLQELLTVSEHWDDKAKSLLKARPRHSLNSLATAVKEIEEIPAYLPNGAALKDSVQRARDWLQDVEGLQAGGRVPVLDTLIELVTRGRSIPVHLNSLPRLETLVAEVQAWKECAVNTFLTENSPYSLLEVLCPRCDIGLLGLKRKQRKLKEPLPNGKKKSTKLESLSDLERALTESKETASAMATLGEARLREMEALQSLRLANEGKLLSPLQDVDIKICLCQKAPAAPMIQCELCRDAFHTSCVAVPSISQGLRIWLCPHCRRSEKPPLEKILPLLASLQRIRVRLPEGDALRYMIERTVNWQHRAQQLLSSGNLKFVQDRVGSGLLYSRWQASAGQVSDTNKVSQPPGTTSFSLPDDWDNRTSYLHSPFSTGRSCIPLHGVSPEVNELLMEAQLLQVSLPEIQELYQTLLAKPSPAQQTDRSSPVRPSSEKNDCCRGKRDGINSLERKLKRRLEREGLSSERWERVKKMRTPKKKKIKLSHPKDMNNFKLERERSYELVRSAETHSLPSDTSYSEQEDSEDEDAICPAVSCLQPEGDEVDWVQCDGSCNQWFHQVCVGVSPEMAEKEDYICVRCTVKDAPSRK

SMILES	Potency
O=S1(=O)c2ccccc2N(Cc2ccc(F)cc2)c2ccccc21	inconclusive: 35.5 µM [inhibitor, partial curve, poor fit]
Cc1cc2nc(-c3ccc(=O)[nH]c3)n(C)c2cc1C	inconclusive: 39.8 µM [inhibitor, single point]
C=CCNc1nc(-c2c(N)n(CCC)c(=O)n(C)c2=O)cs1	inconclusive: 25.1 µM [inhibitor, single point]
COCCOC1CCOC2(CCN(C(=O)C3(c4ccc(OC)cc4)CC3)CC2)C1 (configuration not stated)	inconclusive: 31.6 µM [inhibitor, partial curve, poor fit]
Cc1nn2c(c1-c1ccnn1C(C)C)N(Cc1cccc(C#N)c1)CCC2	inconclusive: 28.2 µM [inhibitor, partial curve]
O=C(NCc1cc(F)ccc1F)[C@@H]1CNC[C@H]1COc1cccnc1	inconclusive: 11.2 µM [inhibitor, partial curve]
COC[C@@H]1[C@H](NC(=O)c2cn(CCN3CCNCC3)nn2)[C@@H]2CCO[C@H]12	inconclusive: 14.1 µM [inhibitor, partial curve]
COc1ccc(C(=O)N2CCCC(O)(CN3CCCC3)C2)c(OC)c1 (configuration not stated)	inconclusive: 1.78 µM [inhibitor, full curve, poor fit]
Cc1ccccc1CC(=O)N1CCN(c2cc(-c3ccc(Cl)cc3)[nH]n2)CC1	inactive
COc1ccc(-c2cc(C(=O)Oc3ccc(C#N)cc3)no2)cc1	inconclusive: 1.78 µM [inhibitor, full curve, poor fit]
C/C(=N/NC(=O)c1ccc(C(C)(C)C)cc1)c1ccccn1	inconclusive: 39.8 µM [inhibitor, partial curve, poor fit]
CC(C)c1ccccc1NC(=O)/C=C/c1cccs1	inactive
CNC(=O)CCn1ncc2cc(OCc3ccccc3-c3cc(F)cc(OC)c3)ccc21	inactive
CN(C)c1ncnc2sc3c(c12)CCN(Cc1ccncc1)C3	inconclusive: 28.2 µM [inhibitor, partial curve, poor fit]
CCOC(=O)c1cn2nc(Oc3cccc(C(F)(F)F)c3)ccc2n1	inconclusive: 22.4 µM [inhibitor, partial curve, poor fit]
O=C(Cn1ncc2c3ccccc3n(Cc3ccccc3)c2c1=O)NCCCN1CCCCC1	inconclusive: 14.1 µM [inhibitor, partial curve, poor fit]
Cc1ccc(Cl)cc1N1CCN(C(=O)CCc2nnc3n(C)c(=O)c4ccccc4n23)CC1	inconclusive: 2 µM [inhibitor, full curve, poor fit]
O=C(C1CC1)N1CCN(c2nc3ncccc3o2)CC1	inconclusive: 22.4 µM [inhibitor, single point]
COCCCNC(=O)c1ccc2c(c1)C(O)CCCCCN2CCOC (configuration not stated)	inconclusive: 39.8 µM [inhibitor, single point]
CS(=O)(=O)N1CCC(C2CCN(C(=O)Cc3c[nH]c4ccccc34)C2)CC1 (configuration not stated)	inconclusive: 39.8 µM [inhibitor, single point]
O=C1CC(c2noc(-c3ccccc3F)n2)CN1c1ccc(Cl)cc1 (configuration not stated)	inactive
Cc1ccc(NC(=O)CSc2nc3n[nH]c(C)c3c(=N)n2-c2ccccc2C)cc1C	inconclusive: 39.8 µM [inhibitor, single point]
CCC(C)Nc1ncnc2c1CN(C1CCNCC1)C(=O)CN2C (configuration not stated)	active: 35.5 µM

SMILES	Potency
CC(=O)Nc1ccc(CNC2(Cc3cc(CN(C)Cc4ccccc4)on3)COC2)cc1	inconclusive: 35.5 µM [inhibitor, partial curve]
CCCNC(=O)NCc1nc(-c2ccc(OC)cc2)oc1C	inconclusive: 22.4 µM [inhibitor, single point]
Cc1cccc(NC(=O)COc2cccc(/C=N/O)c2)c1C	inactive
O=C(O)c1nnn(-c2ccc(Br)cc2)c1C(F)(F)F	inactive
CC(C)C[C@@H](NC(=O)[C@@]1(O)C[C@@H](O)[C@H](O)[C@@H](NC(=O)c2ccc(F)c(Cl)c2)C1)C(N)=O	inactive
CCn1ccc(C(=O)NC2CCCN(c3cc(-c4ccc(OC)cc4)[nH]n3)C2)n1 (configuration not stated)	inconclusive: 22.4 µM [inhibitor, partial curve, poor fit]
Cc1[nH]c2ccccc2c1C(=O)C(=O)N1CCN(C2CC2)CC1	inactive
C1CC(N2CCC(c3nc(C4CCOC4)no3)CC2)CCO1 (configuration not stated)	inconclusive: 15.8 µM [inhibitor, single point]
C[C@H](C(=O)N1Cc2ccccc2CC2(CCCN2C)C1)c1ccccc1 (some centres not stated)	inactive
CN1CC2(CCCN(Cc3ccc(-c4ccccn4)cc3)C2)OC1=O (configuration not stated)	inactive
CNC(=O)[C@@H](c1ccccc1F)N1CCC[C@H]1C(=O)NCCOC	inconclusive: 31.6 µM [inhibitor, single point]
COCCN1C(=O)c2ccccc2C(C(=O)Nc2nc3c(s2)CCC3)C12CCCCC2 (configuration not stated)	inconclusive: 10 µM [inhibitor, partial curve, poor fit]
CCCS(=O)(=O)N1CCN(c2ccc(N3CCOCC3)nn2)CC1	inconclusive: 22.4 µM [inhibitor, partial curve, poor fit]
O=C1CC(c2ccccc2)N(Cc2ccncc2)CCCN(C(=O)c2cc3ccccc3[nH]2)CCN1 (configuration not stated)	inconclusive: 39.8 µM [inhibitor, single point]
C[C@H]1[C@@H]2[C@@H](O)C([C@H](C)C(=O)NCc3cccs3)CC[C@@]2(C)CC[C@@H]1NC(=O)Cc1ccccc1 (some centres not stated)	inactive
Cc1cc(F)ccc1S(=O)(=O)NCCc1csc2nc(-c3ccc(Cl)cc3)nn12	inactive
CC(C)c1ccc(CNCCN2CCCC2)cc1	inactive
COc1ccc(C(=O)NC[C@@H]2CC[C@H]3C[C@@H]2C3(C)C)cc1	inactive
CCNC(=O)c1c(NC(=O)c2ccc(C)cc2)sc2c1CCCC2	inactive
CCc1ccc(S(=O)(=O)c2nnn3c2nc(N2CCC(C(N)=O)CC2)c2cc(Cl)ccc23)cc1	inconclusive: 39.8 µM [inhibitor, single point]
Cc1ccc(C)c(NC(CC(=O)c2ccccc2)C(=O)O)c1 (configuration not stated)	inconclusive: 28.2 µM [inhibitor, single point]
O=S1(=O)CCC(Cc2nc(-c3ccccn3)nn2Cc2ccccc2)C1 (configuration not stated)	inactive
Cc1ccc(CSc2nc3c(cnn3CCO)c(=O)[nH]2)cc1	inactive

SMILES	Potency
O=C(NCCN1CCCCC1)C1CCN(C(=O)N2CC3CC(C2)[C@H]2CCCC(=O)N2C3)CC1 (some centres not stated)	inactive
O=C1CCN(C(=O)[C@@H]2CCCN2C(=O)C2CCCCC2)CCCCCCN1	inactive
CCN1CCN(c2ccc3nnc(C(C)C)n3n2)CC1	inconclusive: 28.2 µM [inhibitor, single point]
COc1ccc(CNC(=O)c2cc3oc4ccccc4c3n2C)cc1OC	inconclusive: 39.8 µM [inhibitor, partial curve, poor fit]
COc1ccccc1CCN1CCCC(CN(C)C(=O)Cn2cccnc2=O)C1 (configuration not stated)	inconclusive: 10 µM [inhibitor, partial curve]
CCC(C)(NCc1ccccc1)c1nnnn1-c1ccccc1C (configuration not stated)	inactive
Cc1cc(C)c([S+](=O)([O-])c2nnn3c2nc(N2CCOCC2)c2ccccc23)c(C)c1	inconclusive: 50.1 µM [inhibitor, partial curve]
O=C(Nc1ccccc1)O[C@@H]1CO[C@H]2[C@@H]1OC[C@@H]2NC(=O)c1ccc2c(c1)OCO2	inconclusive: 31.6 µM [inhibitor, partial curve, poor fit]
COc1cccc(Oc2coc3cc(OC(=O)c4ccc([N+](=O)[O-])cc4)ccc3c2=O)c1	inconclusive: 8.91 µM [inhibitor, partial curve, poor fit]
O=C(COc1ccc(Cl)cc1)Nc1ccc(-c2nc3cc(Cl)ccc3o2)c(O)c1	inconclusive: 2.51 µM [inhibitor, full curve, poor fit]
COc1ccc(Cl)cc1NC(=O)c1sc2nc(-c3ccc(OC)c(OC)c3)ccc2c1N	inconclusive: 15.8 µM [inhibitor, partial curve, poor fit]
O=C(O)C/C(=C/c1ccc(C(=O)O)cc1)c1nc2ccccc2s1	inconclusive: 28.2 µM [inhibitor, partial curve, poor fit]
COc1ccc2[nH]cc(CCNC(=O)C3(Cc4cccnc4)CCCCC(=O)N3)c2c1 (configuration not stated)	inconclusive: 25.1 µM [inhibitor, single point]
CC(NC(=O)c1n[nH]c(=O)c2ccccc12)c1ccco1 (configuration not stated)	inactive
O=C(OCC(F)(F)F)c1cc([N+](=O)[O-])cc([N+](=O)[O-])c1	inactive
COC(=O)c1ccc(NC(=O)NC(C)c2c(-n3cccc3)sc(C)c2C)cc1 (configuration not stated)	inconclusive: 14.1 µM [inhibitor, partial curve, poor fit]
CN(CC(=O)N1CCN(CC(=O)NC(C)(C)C)CC1)c1nc(-c2ccccc2)c2ccccc2n1	inconclusive: 3.98 µM [inhibitor, partial curve, poor fit]
COc1ccc(-n2nc(C(=O)NCC(=O)N3CCN(c4ccccn4)CC3)c3ccccc3c2=O)c(OC)c1	inactive
Cc1ccc(Br)cc1S(=O)(=O)N(C)CCC#N	inactive
COc1ccc(N2CC(C(=O)NCCNC(=O)c3c[nH]c4ccccc34)CC2=O)cc1 (configuration not stated)	inactive
CCCN1CCN(C(=O)c2ccc3c(c2)n(CC)c(=O)c2ccnn23)CC1	inconclusive: 28.2 µM [inhibitor, single point]
